# Out of some 52,000 compounds screened, about 4,300 (8.3%) were called active. Rule as the data show it: active = survival mostly below about 52% (no sharp cut-off); inactive = mostly above about 56%. This is one part of the list.
# Tested on: DeltatarO mutant
# Assay: S. aureus survival, RN4220 and DeltatarO strains – OD600, teichoic acid synthesis inhibitors, primary screen (AID 463173)
# Conditions: S. aureus RN4220 wild type/DeltatarO growth, OD600, 18 h, hits give low values, screened at 18.75 µg/mL (by protocol)
row,Structure (SMILES),survival
1,CCOC(=O)c1ccc(NC(=O)C(CC)Sc2nncn3c2cc2oc(C)cc23)cc1 (stereo not given),inactive: 56%
2,Cc1cn2c(=O)cc(COC(=O)c3ccc(NC(=O)c4ccc(C(C)(C)C)cc4)cc3)nc2s1,active: 20%
3,CCC(Oc1ccccc1)C(=O)Nc1ccc(Cl)cn1 (stereo not given),inactive: 102%
4,COc1ccc(CNS(=O)(=O)c2csc(C(N)=O)c2)cc1OC,inactive: 85%
5,COc1ccc(C2=Nc3ccccc3N(CC(=O)Nc3cccc(C(C)=O)c3)C(=O)C2)cc1,inactive: 116%
6,c1cncc(CNC2CCCc3ccccc32)c1 (stereo not given),inactive: 74%
7,CCCCNc1nc2c(-c3cccc(Br)c3)nnn2c2ccccc12,inactive: 101%
8,CCc1ccc2occ(CC(=O)NCc3ccccc3)c2c1,inactive: 109%
9,CCOc1ccc(C(=O)Nc2ccc(Cl)c(-c3nc4cc(C)cc(C)c4o3)c2)cc1,inactive: 66%
10,COc1ccc(-c2nc3sc(CCNC(=O)c4ccc(C(C)(C)C)cc4)c(C)n3n2)cc1,inactive: 122%
11,CCOc1ccccc1C(=O)Nc1cc2c(cc1C)n(C)c(=O)c(=O)n2C,inactive: 90%
12,COc1ccc(CNC(=O)CN(C)S(=O)(=O)c2ccc3[nH]c4c(c3c2)CCCC4)cc1,inactive: 70%
13,Nc1nc(OC(C(F)(F)F)C(F)(F)F)nc(OC(C(F)(F)F)C(F)(F)F)n1,active: 13%
14,CC(C)c1ccc(NC(=O)c2cc(S(=O)(=O)NCCC3=CCCCC3)ccc2F)cc1,inactive: 75%
15,COc1ccc(NC(=O)Cc2ccc(NC(=O)N3CCCCc4ccccc43)cc2)c(OC)c1,active: 47%
16,CCN(CC)CCNC(=O)Cn1cnc2sc(C)c(S(=O)(=O)N3CCC(C)CC3)c2c1=O,inactive: 105%
17,COC(=O)c1ccc(OCC2c3cc(OC)c(OC)cc3CCN2C(=O)Cc2ccc(OC)c(OC)c2)cc1 (stereo not given),inactive: 87%
18,CC(C)c1nn2c(=O)cc(COC(=O)c3ccc4c(c3)OCO4)nc2s1,inactive: 94%
19,Cc1cn2c(=O)c(S(=O)(=O)NCCc3ccc(Cl)cc3)c(C)nc2s1,inactive: 78%
20,COc1cc(C(=O)Nc2nnc(CC(C)(C)C)s2)cc(OC)c1OC,inactive: 105%

row,Structure (SMILES),survival
1,CCc1ccc(NC(=O)C2CCCN2S(=O)(=O)c2cccc3nsnc23)cc1 (stereo not given),inactive: 117%
2,CC(=O)N1CCc2c(sc3c2c(=O)n(-c2ccccc2)c(=O)n3CC(=O)c2ccc(F)cc2)C1,inactive: 89%
3,CSc1cccc(NC(=O)c2ccc3c(c2)CCCN3S(C)(=O)=O)c1,inactive: 63%
4,CCCCCCn1c(/C=C/c2ccccc2)nc2ccccc21,active: 1%
5,O=C(O)CC(NC(=O)Cc1ccccc1)c1ccccc1 (stereo not given),inactive: 99%
6,COc1ccc(NC(=O)c2ccc3[nH]c(C)cc(=O)c3c2)cc1,inactive: 95%
7,Cc1ccc(-n2cc(C(=O)OCc3ccc(Cl)cc3)c3ccccc3c2=O)cc1,inactive: 67%
8,Cc1ccc(NC(=O)Cc2coc3c(C)c(C)ccc23)c(C)c1,inactive: 96%
9,Cc1ccc(CNC(=O)CN2C(=O)COc3ccc(S(=O)(=O)N4CCC(C)CC4)cc32)cc1,inactive: 110%
10,CC(C)(C)n1nnnc1C(c1ccc2ncccc2c1)N1CCc2ccccc21 (stereo not given),inactive: 74%
11,O=C(O)CC1SC(=Nc2ccc(O)cc2)NC1=O (stereo not given),inactive: 95%
12,CCS(=O)(=O)Nc1ccc(Cc2ccncc2)cc1,inactive: 103%
13,COc1cc(C2Oc3nc(SC)nnc3-c3ccccc3N2C(C)=O)cc(Cl)c1OC (stereo not given),inactive: 66%
14,Cc1ccc(-n2ncc3c(NCc4ccccc4)ncnc32)cc1C,inactive: 70%
15,Cc1cc(Br)ccc1NC(=O)c1sc2ncn(Cc3ccccc3Cl)c(=O)c2c1C,inactive: 72%
16,NCc1oc(-c2ccccc2)cc1C(=O)O,inactive: 102%
17,O=C(CSc1oc(-c2ccco2)nc1S(=O)(=O)c1ccc(Br)cc1)c1ccc(Cl)cc1,inactive: 52%
18,Cc1ccc(C)c(NC(=O)CN(Cc2ccccc2)S(=O)(=O)c2ccc3nc(C)sc3c2)c1,inactive: 80%
19,c1ccc(N2CCN(c3ncnc4c3nc3n4CCCCC3)CC2)cc1,inactive: 89%
20,COC(=O)C1CCN(c2csc3ccc(C)cc3c2=O)CC1,inactive: 72%

row,Structure (SMILES),survival
1,CCc1nn(CCCC(=O)NCc2ccc(OC)c(OC)c2)c(=O)c2cc3occc3n12,inactive: 79%
2,CCN(CC)c1ccc(-c2nc(-c3ccccn3)no2)cc1[N+](=O)[O-],active: 41%
3,CCCCNC(=O)CSc1nc2ccccc2nc1Cc1ccccc1,inactive: 85%
4,C=CCNC(=O)CN1CCN(C)CC1,inactive: 77%
5,CC(C)Cc1nn2c(=O)cc(O)nc2s1,inactive: 89%
6,CC1=C(C(=O)Nc2cccnc2)C(c2ccc(F)cc2)n2nc(SCc3ccccc3)nc2N1 (stereo not given),inactive: 80%
7,Cc1cccc(NC(=O)CCS(=O)(=O)c2cc(Br)cc3c2N(C(=O)C2CC2)CC3)c1C,inactive: 100%
8,Cc1cc(C)cc(NC(=O)C2CCN(c3nc(C)cc(C)n3)CC2)c1,inactive: 76%
9,CC1CCN(S(=O)(=O)c2cccc(C(=O)N(C)C3(C)CCS(=O)(=O)C3)c2)CC1 (stereo not given),inactive: 75%
10,COc1cc(OC)c(NC(=O)CSc2nc3ccncc3[nH]2)cc1Cl,inactive: 112%
11,CCN1C(=O)C2C(c3ccccc3O)NC(Cc3c[nH]c4ccccc34)(C(=O)O)C2C1=O (stereo not given),inactive: 61%
12,CC(NC(=O)C1CCN(C(=O)N2CCOc3ccccc32)CC1)c1ccccc1 (stereo not given),inactive: 71%
13,CSc1oc(-c2ccc(F)cc2)nc1S(=O)(=O)c1ccc(Br)cc1,active: 41%
14,CC(C)CC(NC(=O)C1CCC(C)CC1)C(=O)OCC(=O)c1ccc(Cl)cc1 (stereo not given),inactive: 139%
15,O=C(CSc1nc2ccccc2n1Cc1ccccc1)NCc1ccccc1,inactive: 95%
16,C#CC(CCN1CCCCC1)(OC)c1ccccc1 (stereo not given),inactive: 69%
17,Oc1cccc2c1NCCC2,inactive: 98%
18,CC(C)CCNC(=O)c1ccc(NC(=O)N2CCCCc3ccccc32)cc1,inactive: 80%
19,Cc1ccc(N2CC(NC(=O)C3CCCC3)CC2=O)cc1 (stereo not given),inactive: 81%
20,COc1cccc(N2CCN(C(=O)Cn3ncc4c3-c3ccccc3OC4)CC2)c1,inactive: 58%

# Source: PubChem BioAssay AID463173 (ICCB-Longwood Screening Facility, Harvard Medical School, 2010)
